Consider 53 compounds from PubChem BioAssay AID1347073 (National Center for Advancing Translational Sciences (NCATS), 2019).

The whole screen tested about 45,000 compounds, of which about 200 (0.44%) were called active. Roughly 7% stayed inconclusive and do not appear here. The call rests on the fitted dose curve; in most records, active means well fitted activation curve with a large enough effect; inconclusive means small, poorly fitted or top-dose-only effect; inactive means no such curve, though single readings can be large or run the other way. The list shows a part of the results.

The test in a line: qHTS of TDP-43 Inhibitors: NCGC Sytravon Library Screen. Further: 0% is about no effect; nearly all actives have a fitted effect of over 55% in size. To be noted: yeast TDP-43 toxicity rescue, BacTiter-Glo growth, 24 h; series mostly up to 46.1 µM; growth rescue (activation): at the top concentration. The procedure, abridged:
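TDP-43-expressing yeast, pregrown in raffinose, seeded at OD600 0.02 in galactose medium with compound for 24 hr at 30 deg C. Growth read by BacTiter-Glo luminescence, so rescue of toxicity appears as activation.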
As for `NC(=O)CSc1nc2c(sc3ccccc32)c(=O)n1CCCC(=O)NCC1CCCO1` (stereo not drawn), the “growth rescue (activation)” value is inactive: 11.2%. In the case of `CCc1ccc(NC(=O)CN2C(=O)C(c3ccc(Cl)cc3)=NC23CCCCC3)cc1`, the “growth rescue (activation)” value is inactive: 8.08%.

As to `O=C(O)CN1C(=O)/C(=C\c2cc(Br)ccc2OCc2ccccc2Cl)SC1=S`, the “growth rescue (activation)” value was inactive: 12.8%.

On to `COCCNc1ccc(N2C(=O)C3CCCCC3C2=O)cc1[N+](=O)[O-]` (stereo not drawn), for which the “growth rescue (activation)” value was inactive: 0.864%. For the compound `O=C(Nc1nc2ccccc2[nH]1)Nc1ccccc1F`, the “growth rescue (activation)” value is inactive: 2.01%. For `O=C1/C(=C/c2ccc(O)c([N+](=O)[O-])c2)SC(=S)N1Cc1ccccc1`, the “growth rescue (activation)” value is inactive: -0.614%.

For the compound `O=C(Nc1ccc2c(c1)OCO2)c1cc(C2CCCCN2C(=O)c2ccc3c(c2)CCO3)on1` (stereo not drawn), the “growth rescue (activation)” value was inactive: 26.3%. Regarding `O=C(CCCl)Nc1nnc(SCC(=O)NC2CCCC2)s1`, the “growth rescue (activation)” value is inactive: -3.35%. Regarding `Cc1ccsc1C(=O)N1CCC(CO)(Cc2ccccc2)CC1`, the “growth rescue (activation)” value was inactive: 13.7%. `C=CCn1c(SCc2nc3sc(C(=O)O)c(C)c3c(=O)[nH]2)nnc1-c1ccc(F)cc1`: the “growth rescue (activation)” value is inactive: -2.05%.

For `CCCn1ncc([C@@H]2C[C@H]3CN(Cc4cccc(Cl)c4)C(=O)[C@]34CCCN24)c1C`, the “growth rescue (activation)” value is inactive: -9.37%. For `Cn1c(=O)c([N+](=O)[O-])c(-n2cnc3ccccc32)c2ccccc21`, the “growth rescue (activation)” value was inactive: 10.5%. On to `CSc1cccc(NC(=S)N(CCC(C)C)C2CCN(C(C)C)CC2)c1`, for which the “growth rescue (activation)” value was inactive: 17.2%. Then `CCC1CCCCN1C(=O)CSc1nnc(N)s1` (stereo not drawn), with inactive: -0.366%. Take `CCOC(=O)C1CCCN(C(=O)c2cccc(S(=O)(=O)N3CCOCC3)c2)C1` (stereo not drawn): the “growth rescue (activation)” value was inactive: 0.672%.

On to `CCc1ccc(-c2nc(C)c(CCO)c(=O)[nH]2)cc1`, for which the “growth rescue (activation)” value is inactive: -4.76%. On to `O=C1S/C(=C\c2ccccc2)C(=O)N1CC(O)Cn1c2ccccc2c2ccccc21` (stereo not drawn), for which the “growth rescue (activation)” value is inactive: 10.8%. Take `CCn1cc(C(=O)NCCC(=O)NCCO)c(=O)c2cc3c(cc21)OCO3`: the “growth rescue (activation)” value is inactive: -5.63%. For the compound `CC1CCN(C(=O)c2ccc([N+](=O)[O-])o2)CC1`, the “growth rescue (activation)” value is inactive: 16%. Next, `COc1ccc(-c2csc(N(CCCN3CCOCC3)C(=O)CCl)n2)cc1`: inactive: -1.94%; `COc1cc(CNC(=O)Nc2nc(C(N)CCc3ccccc3)cs2)cc(OC)c1OC` (stereo not drawn): inactive: -3%. Then `O=C(c1cc(COc2ccccc2)on1)N1CCCC(OCc2cccnc2)C1` (stereo not drawn), with inactive: 10.7%; and `COc1cc(OC)cc(C(=O)Nc2nnc(NC(=S)Nc3ccccc3)s2)c1`, with inactive: -2.53%; and `COc1ccc(/C=N/NC(=O)C(=O)N2CCCCCC2)cc1`, with inactive: -4.18%. On to `CCOc1ccc(/C(O)=C/C(=O)C(=O)Nc2ccc(S(=O)(=O)NC(C)=O)cc2)cc1`, for which the “growth rescue (activation)” value is inactive: -41.4%.

Consider `CC1CCC2(CC1)NC(=O)N(CC(=O)N1CCN(S(=O)(=O)c3ccccc3)CC1)C2=O` (stereo not drawn), for which the “growth rescue (activation)” value is inactive: 7.7%. Next, `CN(C)C(CNc1ncccn1)c1ccccc1` (stereo not drawn): inactive: -9.96%. As for `O=C(Nc1ccc(N2CCN(C(=O)c3ccco3)CC2)c(Cl)c1)c1cccnc1`, the “growth rescue (activation)” value was inactive: 12.8%. In the case of `O=C(O)c1ccc(C(=O)C(=O)c2ccccc2)cc1`, the “growth rescue (activation)” value was inactive: -3.01%. Take `CCOC(=O)/C(C#N)=C1/C(=O)N(Cc2ccccc2)c2ccccc21`: the “growth rescue (activation)” value was inactive: -25.3%. For `COc1ccc(NC(=O)c2cc3c(=O)n4ccccc4nc3n2C)c(OC)c1`, the “growth rescue (activation)” value was inactive: 8.21%. Next, `O=C1COc2cc(S(=O)(=O)NCc3ccco3)c(Cl)cc2N1`: inactive: 19.5%; `COc1ccc2c(c1)c1nc3ccccc3nc1n2Cc1ccc(OC)c(OC)c1`: inactive: 25.6%; `O=C(/C=C/c1ccccc1)NNc1ccc(Cl)cc1`: inactive: 4.76%.

Regarding `CSc1nsc(SCC(=O)Nc2ccc(C(N)=O)cc2)n1`, the “growth rescue (activation)” value was inactive: -1.5%. In the case of `Cc1ccc(C(=O)NNC(=O)c2cccc(C)c2)cc1`, the “growth rescue (activation)” value was inactive: 5.76%. `CCN(CC)S(=O)(=O)c1ccc(N2CCOCC2)c(NS(=O)(=O)c2ccc(C(C)C)cc2)c1`: the “growth rescue (activation)” value was inactive: 2.17%. As to `CCOc1ccc(CCNC(=O)CSCc2ccc(C)cc2)cc1OCC`, the “growth rescue (activation)” value was inactive: 10.2%. As for `Cc1nn2c(-c3cccc(NC(=O)c4ccccc4)c3)nnc2c2ccccc12`, the “growth rescue (activation)” value is inactive: -0.371%. For the compound `CCN(CC)S(=O)(=O)c1ccc(N2CCN(c3ccccc3OC)CC2)c(N)c1`, the “growth rescue (activation)” value was inactive: -10.7%. As for `Cc1cccc(C)c1NC(=O)CS(=O)CC(=O)N1CCN(c2ccccc2)CC1` (stereo not drawn), the “growth rescue (activation)” value was inactive: -1.23%.

In the case of `COc1ccc(Cl)cc1NC(=O)CC1CCCC1`, the “growth rescue (activation)” value was inactive: 40.1%. For `CCOc1cc(NC(=O)C2CCCCC2)c(OCC)cc1NC(=O)c1ccccn1`, the “growth rescue (activation)” value is inactive: -0.455%.

Turning to `CS(=O)(=O)N1CCc2cc(C(=O)Nc3ccc(Cl)cc3)ccc21`, the “growth rescue (activation)” value was inactive: -23%. Take `O=C(O)CCn1c(=O)oc2cc(S(=O)(=O)N3CCCC3)ccc21`: the “growth rescue (activation)” value is inactive: 6.09%. Turning to `CCOC(=O)c1c(C)oc2ccc(N(C(=O)Oc3ccccc3)S(=O)(=O)c3ccc(CC)cc3)cc12`, the “growth rescue (activation)” value was inactive: -9.51%. Then `COC(=O)C1CCN(C(=O)CSc2nc3nc(C)cc(C)n3n2)CC1`, with inactive: 11.9%. Consider `O=C(/C=C/c1ccc(Cl)cc1)N(Cc1ccccc1)C1CCS(=O)(=O)C1` (stereo not drawn), for which the “growth rescue (activation)” value is inactive: 18.3%.

Take `COC(=O)c1sc(N)c(C(=O)OC)c1COC(=O)CNS(=O)(=O)c1cccc(C#N)c1`: the “growth rescue (activation)” value was inactive: 8.64%. For `CCOc1cccc(-c2cc(NCCc3ccccn3)n3nccc3n2)c1`, the “growth rescue (activation)” value is inactive: 19.6%.

Take `CC1CCN(C(=O)Cn2ncc3c4ccccc4n(C)c3c2=O)CC1`: the “growth rescue (activation)” value is inactive: -29.6%. Then `O=C(O)CCc1nnc(SCC(=O)Nc2ccc(Br)cc2)[nH]c1=O`, with inactive: 4.93%; and `C=CCOc1ccc(C(c2c(C)n(C)n(-c3ccccc3)c2=O)c2c(C)n(C)n(-c3ccccc3)c2=O)cc1`, with inactive: 6.21%.
